In PubChem BioAssay AID588855 (National Center for Advancing Translational Sciences (NCATS), 2011):
Out of some 410,000 compounds screened, about 5,000 (1.2%) were called active. The shares of active, inactive and inconclusive entries below differ from those in the screen. Calls follow the shape of the dose curve; as a rule, active = well fitted inhibition curve with a large enough effect; inconclusive = small, poorly fitted or top-dose-only effect; inactive = no such curve, though single readings can be large or run the other way. Potencies beside an inconclusive call are fits to weak or partial responses and may not hold up.

Assay: qHTS for Inhibitors of TGF-b; also: nearly all actives have a fitted effect of over 65% in size
Settings: HepG2 CAGA-GFP TGF-b/SMAD3 reporter, GFP fluorescence, 18 h, TGF-beta stimulated, 500 pg/mL final; series mostly up to 46.1 µM
Outline: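 HEPG2 CAGA-GFP cells (1000/well, DMEM with 1% FBS) were pre-incubated 2 h at 37 degrees C, given compound by pin tool, then stimulated with TGF-beta at 500 pg/mL final for 18 h before per-cell GFP fluorescence imaging.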
Potency is read from the fitted curve at half-maximal effect; tags tell the direction and shape of the fitted curve.

Which Potency does the source give for `COc1ccccc1NC(=O)c1cc(-c2ccc(OC)c(OC)c2)nc2ccccc12` here?
The Potency was “inactive”.

With `Cc1ccc(N2CC(c3nnc(Cc4ccc(F)cc4)o3)CC2=O)cc1` (configuration not stated) as the compound, how does the Potency read?
Its Potency is “inactive”.

For `CCN(CC)c1ccc(/C=N/NC(=O)c2cccc(S(=O)(=O)Nc3ccccc3OC)c2)c(O)c1`, which Potency is on record?
Its Potency is inconclusive: 0.501 µM [inhibitor, full curve, poor fit].

With `O=C1COc2ccc(-c3cc(-c4ccc(F)cc4)c4c(n3)-c3cc(Cl)ccc3OC4)cc2N1` as the compound, how does the Potency read?
Its Potency is “inactive”.

For `CCOC(=O)c1cnc2c(C(=O)OC)cccc2c1NCCN1CCOCC1`, which Potency is on record?
The Potency was inconclusive: 35.5 µM [inhibitor, partial curve, poor fit].

With `O=C(Nc1ccccc1C(F)(F)F)c1ccc(CN2CCC(Cc3ccccc3)CC2)cc1` as the compound, how does the Potency read?
The Potency was inconclusive: 35.5 µM [inhibitor, single point].

Which Potency does the source give for `CCn1cc([N+](=O)[O-])c(C(=O)N2CCOCC2)n1` here?
The Potency was inconclusive: 0.708 µM [inhibitor, full curve, poor fit].

Which Potency does the source give for `Cc1ccc(NC(=O)c2cc3nc(-c4ccc5c(c4)OCO5)cc(C(F)(F)F)n3n2)cc1Cl` here?
Its Potency is “inactive”.

Which Potency does the source give for `O=C(NCc1ccc(F)cc1)c1ccc(CS(=O)Cc2ccc(Cl)cc2)o1` (configuration not stated) here?
Its Potency is inconclusive: 10 µM [inhibitor, partial curve].

Which Potency does the source give for `COC(=O)COc1ccc2c(c1)O/C(=C\c1cccc([N+](=O)[O-])c1)C2=O` here?
Its Potency is “inactive”.

Which Potency does the source give for `O=C(NC1CCCCC1)n1c(=O)oc2ccc(Cl)cc21` here?
The Potency was “inactive”.

With `COc1cc(/C=C(/C(=O)c2cccs2)c2nc3ccccc3[nH]2)cc(OC)c1O` as the compound, how does the Potency read?
Its Potency is inconclusive: 2.24 µM [inhibitor, full curve, poor fit].

For `COc1cc(NC(=O)c2ccccc2-n2cnnn2)cc(OC)c1`, which Potency is on record?
Its Potency is “inactive”.

With `Cc1nc(N2CCN(C)CC2)c2sc(=S)n(-c3ccccc3)c2n1` as the compound, how does the Potency read?
Its Potency is “inactive”.

With `O=c1c2ccccc2nc(-c2ccc(Br)cc2)n1Cc1ccccc1` as the compound, how does the Potency read?
The Potency was inconclusive: 31.6 µM [inhibitor, single point].

With `Oc1c(C(c2ccccc2)N2CCN(c3cccc(Cl)c3)CC2)sc2nc(-c3ccco3)nn12` (configuration not stated) as the compound, how does the Potency read?
Its Potency is inconclusive: 35.5 µM [inhibitor, single point].

Which Potency does the source give for `O=C1C=C(c2ccc(C(=O)O)cc2)C[C@@H](c2ccc(F)cc2)C1` here?
Its Potency is “inactive”.

Which Potency does the source give for `COc1cccc(C2CC(c3ccc(Br)cc3)=NN2C(=O)c2ccncc2)c1OC` (configuration not stated) here?
The Potency was inconclusive: 35.5 µM [inhibitor, single point].

With `COC(=O)c1ccc2c(c1)N(Cc1cc(C)ccc1C)C(=O)c1ccccc1S2(=O)=O` as the compound, how does the Potency read?
Its Potency is inconclusive: 3.98 µM [inhibitor, partial curve, poor fit].

Which Potency does the source give for `N#C/C(=C\c1ccc(F)cc1F)S(=O)(=O)c1ccccn1` here?
The Potency was “inactive”.

For `CC1(C(=O)NS(=O)(=O)C2CC2)CCCN(C(=O)c2cc3ccccc3s2)C1` (configuration not stated), which Potency is on record?
The Potency was “inactive”.

Which Potency does the source give for `COc1cc(NC(=O)c2ccc(Cl)cc2Cl)ccc1-c1cc2ccccc2oc1=O` here?
Its Potency is active: 12.6 µM.

For `COc1ccc(C(=O)C2CCN(C(=S)Nc3ccc(F)cc3)CC2)cc1`, which Potency is on record?
The Potency was inconclusive: 17.8 µM [inhibitor, partial curve].

For `O=C(Cn1cc(S(=O)(=O)Cc2ccccc2Cl)c2ccccc21)Nc1ccc(F)cc1F`, which Potency is on record?
Its Potency is inconclusive: 35.5 µM [inhibitor, single point].

With `O=C(NCc1ccco1)/C(=C/c1cccnc1)NC(=O)c1cccc(Br)c1` as the compound, how does the Potency read?
Its Potency is inconclusive: 0.501 µM [inhibitor, full curve, poor fit].

Which Potency does the source give for `CCc1nc2ccc(C(=O)Nc3ccc(NC(C)=O)cc3)cn2c1N(C)C(=O)Cc1ccccc1` here?
Its Potency is “inactive”.

For `Cc1nc2c(o1)C(=O)c1ccccc1C2=Nc1ccccc1`, which Potency is on record?
Its Potency is active: 1.26 µM.

For `COc1ccc(S(=O)(=O)N2CCN(CCc3ccccc3)CC2)cc1`, which Potency is on record?
The Potency was inconclusive: 25.1 µM [inhibitor, single point].

For `ON=C1c2cc(OCCN3CCCCC3)ccc2-c2ccc(OCCN3CCCCC3)cc21`, which Potency is on record?
The Potency was inconclusive: 22.4 µM [inhibitor, single point].

With `CC(=O)c1cc(CN2CCC(n3nccc3NC(=O)c3ccccc3C)CC2)cs1` as the compound, how does the Potency read?
The Potency was inconclusive: 35.5 µM [inhibitor, single point].

For `CC(C)CNC(=O)N1c2ccccc2Sc2ccccc21`, which Potency is on record?
Its Potency is inconclusive: 35.5 µM [inhibitor, single point].

With `COc1ccc(S(=O)(=O)N2CCCCC2)cc1NCC(=O)Nc1ccc(C)cc1` as the compound, how does the Potency read?
The Potency was inconclusive: 35.5 µM [inhibitor, single point].

Which Potency does the source give for `CCN(CC)C(=O)[C@H]1CC(CC(=O)NCc2ccc(OC)c(OC)c2)C(=O)N2CCc3c([nH]c4ccc(OC)cc34)[C@]12C` (some centres not stated) here?
The Potency was inconclusive: 20 µM [inhibitor, single point].

Which Potency does the source give for `CC(=O)N1CCc2c(sc(NC(=O)CSc3ccc(F)cc3)c2-c2nc3ccccc3s2)C1` here?
Its Potency is inconclusive: 22.4 µM [inhibitor, single point].

With `O=C(Nc1cc(C(=O)N2CCN(c3ccccc3)CC2)ccc1Cl)c1cccs1` as the compound, how does the Potency read?
The Potency was inconclusive: 35.5 µM [inhibitor, single point].

With `Cc1nn(-c2ccccc2)c(C)c1/C=N/NC(=O)CSc1nnc(SCc2cccc3ccccc23)s1` as the compound, how does the Potency read?
The Potency was inconclusive: 0.501 µM [inhibitor, full curve].

Which Potency does the source give for `COc1ccc(C(=O)Nc2cc(-c3ccccc3)nn2-c2ccccc2F)cc1` here?
The Potency was inconclusive: 35.5 µM [inhibitor, single point].

Which Potency does the source give for `CCOC(=O)Cn1c(=O)oc2cc(S(=O)(=O)Nc3ccccc3F)ccc21` here?
The Potency was inconclusive: 11.2 µM [inhibitor, partial curve, poor fit].

For `Cc1cc(C(=O)CSc2nc3ccccc3o2)c(C)n1CC1CCCO1` (configuration not stated), which Potency is on record?
Its Potency is inconclusive: 5.62 µM [inhibitor, full curve, poor fit].

Which Potency does the source give for `CC(C)(C)c1ccc(C(=O)Nc2nnc3n2CCS3)cc1` here?
Its Potency is inconclusive: 7.08 µM [inhibitor, partial curve].

Which Potency does the source give for `Cc1cc2oc(C(=O)Nc3ccc(S(=O)(=O)N(C)c4ccccc4)cc3)cc(=O)c2cc1C` here?
Its Potency is “inactive”.

Which Potency does the source give for `O=C(Nc1cccc(C(F)(F)F)c1)C1CCCN(S(=O)(=O)c2cccc3nonc23)C1` (configuration not stated) here?
Its Potency is “inactive”.
